From the supplement of paper PMC8728848
The list shows a part of the results.

Experiments:
Experiment in all cases: glycan array binding signal (z-score within array); higher = stronger binding
Details in all cases: glycan notation: IUPAC condensed, linker removed
[1] = molecular target: Man(a1-2)Man(a1-3)[Man(a1-2)Man(a1-6)]Man
Procedure, shortened: (§1)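 The Consortium for Functional Glycomics database supplied 3228 glycan arrays, of which those lacking an available protein sequence were dropped. The binding signal, a within-array Z-score, was averaged across arrays of the same protein sequence and across linkers. Negative scores can be read as non-binding.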

[2] = molecular target: Man(a1-2)Man(a1-3)[Man(a1-2)Man(a1-6)]Man(a1-6)[Man(a1-2)Man(a1-2)Man(a1-3)]Man
Procedure, shortened: as §1

[3] = molecular target: Man(a1-2)Man(a1-3)[Man(a1-2)Man(a1-6)]Man(a1-6)[Man(a1-2)Man(a1-2)Man(a1-3)]Man(b1-4)GlcNAc(b1-4)GlcNAc
Procedure, shortened: as §1

[4] = molecular target: Man(a1-2)Man(a1-3)[Man(a1-6)]Man(a1-6)[Man(a1-2)Man(a1-3)]Man(b1-4)GlcNAc(b1-4)GlcNAc
Procedure, shortened: as §1

[5] = molecular target: Man(a1-2)Man(a1-6)[Man(a1-3)]Man(a1-6)[Man(a1-2)Man(a1-2)Man(a1-3)]Man
Procedure, shortened: as §1

[6] = molecular target: Man(a1-2)Man(a1-6)[Man(a1-3)]Man(a1-6)[Man(a1-2)Man(a1-2)Man(a1-3)]Man(b1-4)GlcNAc(b1-4)GlcNAc
Procedure, shortened: as §1

Man(a1-3)[Man(a1-6)]Man = molecular target: Man(a1-3)[Man(a1-6)]Man
Procedure, shortened: as §1

[7] = molecular target: Man(a1-3)[Man(a1-6)]Man(a1-6)[Man(a1-2)Man(a1-3)]Man(b1-4)GlcNAc(b1-4)GlcNAc
Procedure, shortened: as §1

[8] = molecular target: Man(a1-3)[Man(a1-6)]Man(a1-6)[Man(a1-3)]Man
Procedure, shortened: as §1

[9] = molecular target: Man(a1-3)[Man(a1-6)]Man(a1-6)[Man(a1-3)]Man(b1-4)GlcNAc(b1-4)GlcNAc
Procedure, shortened: as §1

[10] = molecular target: Man(a1-3)[Man(a1-6)]Man(b1-4)GlcNAc(b1-4)GlcNAc
Procedure, shortened: as §1

[11] = molecular target: Man(a1-3)[Man(a1-6)]Man(b1-4)GlcNAc(b1-4)[Fuc(a1-6)]GlcNAc
Procedure, shortened: as §1

Man(a1-6)Man = molecular target: Man(a1-6)Man
Procedure, shortened: as §1

Man(b1-4)GlcNAc = molecular target: Man(b1-4)GlcNAc
Procedure, shortened: as §1

Neu5Ac(a2-3)Gal = molecular target: Neu5Ac(a2-3)Gal
Procedure, shortened: as §1

[12] = molecular target: Neu5Ac(a2-3)Gal(b1-3)GalNAc
Procedure, shortened: as §1

[13] = molecular target: Neu5Ac(a2-3)Gal(b1-3)GalNAc(b1-3)Gal(a1-4)Gal(b1-4)Glc
Procedure, shortened: as §1

[14] = molecular target: Neu5Ac(a2-3)Gal(b1-3)GalNAc(b1-4)[Neu5Ac(a2-3)]Gal(b1-4)Glc
Procedure, shortened: as §1

[15] = molecular target: Neu5Ac(a2-3)Gal(b1-3)GalNAc(b1-4)[Neu5Ac(a2-8)Neu5Ac(a2-3)]Gal(b1-4)Glc
Procedure, shortened: as §1

[16] = molecular target: Neu5Ac(a2-3)Gal(b1-3)GalNAc6S
Procedure, shortened: as §1

[17] = molecular target: Neu5Ac(a2-3)Gal(b1-3)GlcNAc
Procedure, shortened: as §1

[18] = molecular target: Neu5Ac(a2-3)Gal(b1-3)GlcNAc(b1-2)Man(a1-3)[GlcNAc(b1-4)][Neu5Ac(a2-3)Gal(b1-3)GlcNAc(b1-2)Man(a1-6)]Man(b1-4)GlcNAc(b1-4)GlcNAc
Procedure, shortened: as §1

[19] = molecular target: Neu5Ac(a2-3)Gal(b1-3)GlcNAc(b1-3)Gal(b1-3)GlcNAc
Procedure, shortened: as §1

[20] = molecular target: Neu5Ac(a2-3)Gal(b1-3)GlcNAc(b1-3)Gal(b1-4)GlcNAc
Procedure, shortened: as §1

[21] = molecular target: Neu5Ac(a2-3)Gal(b1-3)GlcNAc(b1-3)GalNAc
Procedure, shortened: as §1

[22] = molecular target: Neu5Ac(a2-3)Gal(b1-3)GlcNAc(b1-6)GalNAc
Procedure, shortened: as §1

[23] = molecular target: Neu5Ac(a2-3)Gal(b1-3)GlcNAc6S
Procedure, shortened: as §1

[24] = molecular target: Neu5Ac(a2-3)Gal(b1-3)[Fuc(a1-4)]GlcNAc
Procedure, shortened: as §1

[25] = molecular target: Neu5Ac(a2-3)Gal(b1-3)[Fuc(a1-4)]GlcNAc(b1-3)Gal(b1-3)[Fuc(a1-4)]GlcNAc
Procedure, shortened: as §1

[26] = molecular target: Neu5Ac(a2-3)Gal(b1-3)[Fuc(a1-4)]GlcNAc(b1-3)Gal(b1-4)[Fuc(a1-3)]GlcNAc
Procedure, shortened: as §1

[27] = molecular target: Neu5Ac(a2-3)Gal(b1-3)[Neu5Ac(a2-3)Gal(b1-4)]GlcNAc
Procedure, shortened: as §1

[28] = molecular target: Neu5Ac(a2-3)Gal(b1-3)[Neu5Ac(a2-6)]GalNAc
Procedure, shortened: as §1

[29] = molecular target: Neu5Ac(a2-3)Gal(b1-3)[Neu5Ac(a2-6)]GlcNAc(b1-3)[Fuc(a1-3)[Gal(b1-4)]GlcNAc(b1-6)]Gal(b1-4)Glc
Procedure, shortened: as §1

Neu5Ac(a2-3)Gal(b1-4)Glc = molecular target: Neu5Ac(a2-3)Gal(b1-4)Glc
Procedure, shortened: as §1

[30] = molecular target: Neu5Ac(a2-3)Gal(b1-4)GlcNAc
Procedure, shortened: as §1

[31] = molecular target: Neu5Ac(a2-3)Gal(b1-4)GlcNAc(b1-2)Man
Procedure, shortened: as §1

[32] = molecular target: Neu5Ac(a2-3)Gal(b1-4)GlcNAc(b1-2)Man(a1-3)[GlcNAc(b1-2)Man(b1-4)GlcNAc(b1-2)Man(a1-6)]Man(b1-4)GlcNAc(b1-4)GlcNAc
Procedure, shortened: as §1

[33] = molecular target: Neu5Ac(a2-3)Gal(b1-4)GlcNAc(b1-2)Man(a1-3)[Neu5Ac(a2-3)Gal(b1-4)GlcNAc(b1-2)Man(a1-6)]Man(b1-4)GlcNAc(b1-4)[Fuc(a1-6)]GlcNAc
Procedure, shortened: as §1

[34] = molecular target: Neu5Ac(a2-3)Gal(b1-4)GlcNAc(b1-2)Man(a1-3)[Neu5Ac(a2-6)Gal(b1-4)GlcNAc(b1-2)Man(a1-6)]Man(b1-4)GlcNAc(b1-4)GlcNAc
Procedure, shortened: as §1

[35] = molecular target: Neu5Ac(a2-3)Gal(b1-4)GlcNAc(b1-2)[Neu5Ac(a2-3)Gal(b1-4)GlcNAc(b1-6)]Man(a1-6)[Neu5Ac(a2-3)Gal(b1-4)GlcNAc(b1-2)Man(a1-3)]Man(b1-4)GlcNAc(b1-4)GlcNAc
Procedure, shortened: as §1

[36] = molecular target: Neu5Ac(a2-3)Gal(b1-4)GlcNAc(b1-3)Gal
Procedure, shortened: as §1

[37] = molecular target: Neu5Ac(a2-3)Gal(b1-4)GlcNAc(b1-3)Gal(b1-3)GlcNAc
Procedure, shortened: as §1

[38] = molecular target: Neu5Ac(a2-3)Gal(b1-4)GlcNAc(b1-3)Gal(b1-4)GlcNAc
Procedure, shortened: as §1

[39] = molecular target: Neu5Ac(a2-3)Gal(b1-4)GlcNAc(b1-3)Gal(b1-4)GlcNAc(b1-3)Gal(b1-4)GlcNAc
Procedure, shortened: as §1

[40] = molecular target: Neu5Ac(a2-3)Gal(b1-4)GlcNAc(b1-3)Gal(b1-4)[Fuc(a1-3)]GlcNAc
Procedure, shortened: as §1

[41] = molecular target: Neu5Ac(a2-3)Gal(b1-4)GlcNAc(b1-3)GalNAc
Procedure, shortened: as §1

[42] = molecular target: Neu5Ac(a2-3)Gal(b1-4)GlcNAc(b1-3)[Neu5Ac(a2-3)Gal(b1-4)GlcNAc(b1-6)]GalNAc
Procedure, shortened: as §1

[43] = molecular target: Neu5Ac(a2-3)Gal(b1-4)GlcNAc(b1-6)GalNAc
Procedure, shortened: as §1

[44] = molecular target: Neu5Ac(a2-3)Gal(b1-4)GlcNAc(b1-6)[Gal(b1-3)]GalNAc
Procedure, shortened: as §1

[45] = molecular target: Neu5Ac(a2-3)Gal(b1-4)GlcNAc(b1-6)[Neu5Ac(a2-3)Gal(b1-3)]GalNAc
Procedure, shortened: as §1

[46] = molecular target: Neu5Ac(a2-3)Gal(b1-4)GlcNAc6S
Procedure, shortened: as §1

[47] = molecular target: Neu5Ac(a2-3)Gal(b1-4)[Fuc(a1-3)]GlcNAc
Procedure, shortened: as §1

[48] = molecular target: Neu5Ac(a2-3)Gal(b1-4)[Fuc(a1-3)]GlcNAc(b1-3)Gal
Procedure, shortened: as §1

[49] = molecular target: Neu5Ac(a2-3)Gal(b1-4)[Fuc(a1-3)]GlcNAc(b1-3)Gal(b1-4)GlcNAc
Procedure, shortened: as §1

[50] = molecular target: Neu5Ac(a2-3)Gal(b1-4)[Fuc(a1-3)]GlcNAc(b1-3)Gal(b1-4)[Fuc(a1-3)]GlcNAc(b1-3)Gal(b1-4)[Fuc(a1-3)]GlcNAc
Procedure, shortened: as §1

[51] = molecular target: Neu5Ac(a2-3)Gal(b1-4)[Fuc(a1-3)]GlcNAc(b1-3)GalNAc
Procedure, shortened: as §1

[52] = molecular target: Neu5Ac(a2-3)Gal(b1-4)[Fuc(a1-3)]GlcNAc(b1-6)[Gal(b1-3)]GalNAc
Procedure, shortened: as §1

[53] = molecular target: Neu5Ac(a2-3)Gal(b1-4)[Fuc(a1-3)]GlcNAc6S
Procedure, shortened: as §1

B1: RVL (Remusatia vivipara), B5LYJ9 (protein)
chain: MAKLLLFLLPAILGLLVPRSAVALGTNYLLSGQTLDTEGHLKNGDFDLVMQDDCNLVLYNGNWQSNTANNGRDCKLTLTDYGELVIKNGDGSTVWKSGAQSVKGNYAAVVHPDGRLVVLGPSVFKIDPWVRGLNSLRFRNIPFTNNLLFSGQVLYGDGRLTAKNHQLVMQGDCNLVLYGGKYGWQSNTHGNGEHCFLRLNHKGELIIKDDDFKTIWSSRSSSKQGEYVLILQDDGFGVIYGPAIFETSSKRSIAAS
[1]
  glycan array binding signal (z-score): -0.154
[2]
  glycan array binding signal (z-score): -0.058
[3]
  glycan array binding signal (z-score): 0.445
[4]
  glycan array binding signal (z-score): 0.02
[5]
  glycan array binding signal (z-score): -0.119
[6]
  glycan array binding signal (z-score): 0.028
Man(a1-3)[Man(a1-6)]Man
  glycan array binding signal (z-score): 0.23
[7]
  glycan array binding signal (z-score): 3.91
[8]
  glycan array binding signal (z-score): 0.224
[9]
  glycan array binding signal (z-score): 1.36
[10]
  glycan array binding signal (z-score): 3.8
[11]
  glycan array binding signal (z-score): 6.15
Man(a1-6)Man
  glycan array binding signal (z-score): -0.041
Man(b1-4)GlcNAc
  glycan array binding signal (z-score): -0.182
Neu5Ac(a2-3)Gal
  glycan array binding signal (z-score): -0.094
[12]
  glycan array binding signal (z-score): -0.165
[13]
  glycan array binding signal (z-score): 0.083
[14]
  glycan array binding signal (z-score): -0.145
[15]
  glycan array binding signal (z-score): -0.232
[16]
  glycan array binding signal (z-score): -0.236
[17]
  glycan array binding signal (z-score): -0.018
[18]
  glycan array binding signal (z-score): -0.08
[19]
  glycan array binding signal (z-score): 0.064
[20]
  glycan array binding signal (z-score): -0.264
[21]
  glycan array binding signal (z-score): -0.045
[22]
  glycan array binding signal (z-score): -0.116
[23]
  glycan array binding signal (z-score): 0.14
[24]
  glycan array binding signal (z-score): -0.213
[25]
  glycan array binding signal (z-score): -0.179
[26]
  glycan array binding signal (z-score): -0.066
[27]
  glycan array binding signal (z-score): -0.281
[28]
  glycan array binding signal (z-score): 0.017
[29]
  glycan array binding signal (z-score): -0.131
Neu5Ac(a2-3)Gal(b1-4)Glc
  glycan array binding signal (z-score): -0.136
[30]
  glycan array binding signal (z-score): -0.239
[31]
  glycan array binding signal (z-score): -0.045
[32]
  glycan array binding signal (z-score): 0.071
[33]
  glycan array binding signal (z-score): -0.725
[34]
  glycan array binding signal (z-score): -0.062
[35]
  glycan array binding signal (z-score): 3.54
[36]
  glycan array binding signal (z-score): -0.103
[37]
  glycan array binding signal (z-score): -0.012
[38]
  glycan array binding signal (z-score): -0.291
[39]
  glycan array binding signal (z-score): -0.245
[40]
  glycan array binding signal (z-score): -0.066
[41]
  glycan array binding signal (z-score): -0.104
[42]
  glycan array binding signal (z-score): 0.1
[43]
  glycan array binding signal (z-score): -0.443
[44]
  glycan array binding signal (z-score): 0.083
[45]
  glycan array binding signal (z-score): 0.058
[46]
  glycan array binding signal (z-score): -0.033
[47]
  glycan array binding signal (z-score): -0.187
[48]
  glycan array binding signal (z-score): -0.116
[49]
  glycan array binding signal (z-score): -0.268
[50]
  glycan array binding signal (z-score): -0.061
[51]
  glycan array binding signal (z-score): -0.181
[52]
  glycan array binding signal (z-score): -0.058
[53]
  glycan array binding signal (z-score): -0.311
